Assay results reported in patent US20240117010A1 (NAVIGO PROTEINS, published 2024).
Where a chain is given by its changes, count along the chain named.

B1: fusion protein 212895 (SEQ ID NO: 29) (designed binder)
chain: AVLDIAQHSATEEIWWLPNLTKQQKVWFIMSLTQDPSVSKEVLGEAQKLNDSQAPKIAAQHDKIQQAADKEILHLPNLTEEQRNKFRQSLRDDPSVSAEILAEAKKLNDAQAPKIAAQHDKIQQAADKEILHLPNLTEEQRNKFRQSLRDDPSVSAEILAEAKKLNDAQAPKIAAQHDKIQQAADKEILHLPNLTEEQRNKFRQSLRDDPSVSAEILAEAKKLNDAQAPKC
B2: fusion protein 212896 (SEQ ID NO: 30) (designed binder)
chain: B1 chain with A6D, S9A, K40L, V42I, G44A, Q47K, S52A
B3: 212728 (SEQ ID NO: 18) (designed binder)
chain: IAAKFDEAQLAAFEEIRHLPNLTEEQREAFITSLYDDPSVSLEVLGEAQKLNDSQAPKIAAKFDEAQQAAFYEILHLPNPTEWQRNYFIQQLRDDPSVSLAVLGRAQVLNDSQAPK
B4: 212335 (SEQ ID NO: 8) (designed binder)
chain: IAAKFDEAQQYAFYKILHLWNLTEEQRNAFIQSLRDDPSVSLEVLGEARKLNTSQAPKIAAKFDEAQYAAFLEIHHLPNLTEEQRHAFILSLYDDPSVSLEVLGEAQKLNDSQAPK
B5: 212361 (SEQ ID NO: 7) (designed binder)
chain: B4 chain with H75V, H86Q, L90A, Y93W
B6: 213103 (SEQ ID NO: 9) (designed binder)
chain: B4 chain with Y11W, K15E, W20E, L42R, R49T, Y68L, L72Q, H75R, H86E, L90T
B7: 212880 (SEQ ID NO: 36) (designed binder)
chain: B4 chain with Y11L, K15L, W20I, R49Y, T53L, Y68L, L72Q, H75R, H86E, L90T
B8: 212860 (SEQ ID NO: 17) (designed binder)
chain: B4 chain with H75Q, H86Q, L90V, Y93A
B9: fusion protein 213147 (SEQ ID NO: 32) (designed binder)
chain: AKFDEAQQWAFYEILHLENLTEEQRNAFIQSLRDDPSVSREVLGEATKLNTSQAPKIAAKFDEAQLAAFQEIRHLPNLTEEQREAFITSLYDDPSVSLEVLGEAQKLNDSQAPKIAAQHDKIQQAADKEILHLPNLTEEQRNKFRQSLRDDPSVSAEILAEAKKLNDAQAPKIAAQHDKIQQAADKEILHLPNLTEEQRNKFRQSLRDDPSVSAEILAEAKKLNDAQAPK
B10: fusion protein 213152 (SEQ ID NO: 33) (designed binder)
chain: AKFDEAQLAAFEEIRHLPNLTEEQREAFITSLYDDPSVSLEVLGEAQKLNDSQAPKIAAKFDEAQQAAFYEILHLPNPTEWQRNYFIQQLRDDPSVSLAVLGRAQVLNDSQAPKIAAQHDKIQQAADKEILHLPNLTEEQRNKFRQSLRDDPSVSAEILAEAKKLNDAQAPKIAAQHDKIQQAADKEILHLPNLTEEQRNKFRQSLRDDPSVSAEILAEAKKLNDAQAPK

Each binder was assayed against SARS-CoV2 S1 protein (S1 domain of the spike protein) (SARS-Cov-2, UniProt P0DTC2 16-685).

Binder | Kd [nM]
B1 | 560
B2 | 113
B3 | 6.5
B4 | 13
B5 | 31
B6 | 8
B7 | 9.1
B8 | 15
B9 | 225
B10 | 112

These binders were tested against SARS-CoV2 RBD (receptor binding domain of the spike protein) (SARS-Cov-2, UniProt P0DTC2 319-541).

Binder | Kd [nM]
B1 | 34.7
B2 | 27.6
B4 | 68.8
B5 | 21.3
B9 | 42.9
B10 | 29.3
